Source: publication PMC4624954, “Delineating the Tes Interaction Site in Zyxin and Studying Cellular Effects of Its Disruption” (PLoS ONE, 2015)
Changes are numbered by the printed parent chain. Results are given in words; binding and its absence hold for the method and conditions named. Some results given as binding are weak or reduced against the parent protein; the word gives no strength. Tags and fused reporters may be left off the sequences shown.

Assays:
Assay in all cases: ectopic recruitment to mitochondria; Vero cells transiently co-transfected with a zyxin-mito variant (held on the surface of mitochondria by the ActA membrane anchor) and a GFP-Tes variant; fixed cells, immunofluorescence (anti-zyxin or anti-myc) and GFP signal
[1] = molecular target: T1, Zyx 64-77-myc-mito (human) (UniProt Q15942)
T1 sequence: PPPPPEDFPLPPPP

[2] = molecular target: T2, Zyx 51-63-myc-mito (human) (UniProt Q15942)
T2 sequence: GAQRAQMGRVGEI

Zyx FL MT-mito (human) = molecular target: T3, Zyx FL MT-mito (human) (UniProt Q15942)
T3 sequence: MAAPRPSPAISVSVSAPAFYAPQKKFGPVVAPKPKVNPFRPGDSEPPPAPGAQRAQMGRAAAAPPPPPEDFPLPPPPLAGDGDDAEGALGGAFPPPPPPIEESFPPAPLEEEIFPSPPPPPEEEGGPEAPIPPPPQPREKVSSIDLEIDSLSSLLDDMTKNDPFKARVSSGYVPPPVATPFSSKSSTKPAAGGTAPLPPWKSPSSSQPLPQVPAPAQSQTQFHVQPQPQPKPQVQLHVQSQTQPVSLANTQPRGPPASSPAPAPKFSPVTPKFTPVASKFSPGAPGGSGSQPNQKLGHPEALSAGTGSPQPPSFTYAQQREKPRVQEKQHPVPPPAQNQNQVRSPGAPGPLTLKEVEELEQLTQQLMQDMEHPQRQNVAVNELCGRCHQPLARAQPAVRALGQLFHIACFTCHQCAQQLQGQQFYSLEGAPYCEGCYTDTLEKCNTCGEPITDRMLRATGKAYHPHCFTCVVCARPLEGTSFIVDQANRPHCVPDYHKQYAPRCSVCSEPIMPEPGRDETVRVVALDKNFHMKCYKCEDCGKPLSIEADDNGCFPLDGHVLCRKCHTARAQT

[3] = molecular target: T4, Zyx 51-77-myc-mito (human) (UniProt Q15942)
T4 sequence: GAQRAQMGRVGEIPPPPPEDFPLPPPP

Zyx FL WT-mito (human) = molecular target: T5, Zyx FL WT-mito (human) (UniProt Q15942)
T5 sequence: T3 sequence with A60V, A61G, A62E, A63I

[4] = molecular target: T6, Zyx 51–63 MT-myc-mito (human) (UniProt Q15942)
T6 sequence: GAQRAQMGRAAAA

[5] = molecular target: T7, Zyx 140-380-myc-mito (human) (UniProt Q15942)
T7 sequence: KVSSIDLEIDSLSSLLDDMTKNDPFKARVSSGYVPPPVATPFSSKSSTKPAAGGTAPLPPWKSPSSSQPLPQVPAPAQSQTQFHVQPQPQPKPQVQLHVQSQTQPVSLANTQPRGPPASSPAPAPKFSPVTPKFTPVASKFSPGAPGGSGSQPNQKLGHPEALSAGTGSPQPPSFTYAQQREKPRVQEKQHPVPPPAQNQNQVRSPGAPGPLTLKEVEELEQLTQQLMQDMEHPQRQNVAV

[6] = molecular target: T8, Zyx 51-140-myc-mito (human) (UniProt Q15942)
T8 sequence: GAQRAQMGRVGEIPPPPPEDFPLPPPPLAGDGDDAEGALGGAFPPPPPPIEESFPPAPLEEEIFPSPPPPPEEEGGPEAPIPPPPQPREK

- binding [1]: no binding
- binding [2]: binds
- binding (Zyx FL MT-mito (human)): no binding
- binding [3]: binds
- binding (Zyx FL WT-mito (human)): binds
- binding [4]: no binding
- binding [5]: no binding
- binding [6]: binds
B1: GFP-Tes LIM1 (domain or fragment, UniProt Q9UGI8 234-299)
chain: YSCYCCKLSMKEGDPAIYAERAGYDKLWHPACFVCSTCHELLVDMIYFWKNEKLYCGRHYCDSEKP
